± gives the standard deviation of the averaged measurements. This is one part of the list.
Test system: PfAP2-I AP2 domain 3 (GST-tagged)
Experiment: gcPBM binding intensity (ln(normalized median fluorescence intensity)); higher = stronger DNA binding
Summary of the method: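 The highest Masliner-normalised natural-log median intensity across replicate spots of either probe orientation is reported as binding intensity. GST-tagged P. falciparum DNA-binding domains expressed in E. coli were applied for 1 h to an Agilent 4 × 180k array of primer-extended double-stranded 36-bp intergenic genomic probes plus negative controls, and bound protein was detected with Alexa488 anti-GST antibody and scanned at 488 nm.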

| Sequence | gcPBM binding intensity (ln) |
| --- | --- |
| ATATATTATATTATATGTACTTAAAAAAGTGCAAAG [XGTACX_site318] | 8.485 ± 0.035 |
| TATATTCAATTTTTGGTGCGTAAATTAATACAAACA [GTGCAC_site9764] | 10.2 ± 0.45 |
| TATATGTCCATATTTCCACACACATATTATTTTTAT [CACACA_site9266] | 7.88 ± 0.73 |
| TTTTTTCAATAAATAATCGTATATTGAATAATAATA [CACACA_negctrl_site822] | 7.3 ± 0.61 |
| AGAGAGAACGGTATAACATGCGATAAATTTTAGAAG [TGCATGCA_site357] | 7.54 ± 0.86 |
| ATGCACGGAAAAATATGTACTTAATTTCAATAATAT [XGTACX_site8311] | 8.62 ± 0.7 |
| CGGACATACTAACGGACACACGTAAGAAAAAAAAAG [CACACA_site4504] | 7.79 ± 0.58 |
| TATTAATTTTTCCTTTTTTTTTTACCCCTTTGTACA [CACACA_negctrl_site947] | 7.81 ± 0.57 |
| TACACTAATGACAGTTGTACTTTTATTCGATAGAAT [XGTACX_site738] | 7.55 ± 0.47 |
| TATATATATATAATATGTACATATATACATGCCTTG [XGTACX_site2791] | 8.9 ± 0.41 |
| TCGAAAATGACGAATGGTACAGTATGTATAAAAATA [XGTACX_site1258] | 7.75 ± 0.56 |
| ACTTTTTTTTTGTGTGTGCACTCGATTATATACATA [GTGCAC_site9846] | 10.37 ± 0.092 |
| TCAAAATTGCTTTGTTGTACTAATAAAATTTATTAC [XGTACX_site1121] | 7.67 ± 0.49 |
| TATATATACATACGTACACACAAATATTAAAATATA [CACACA_site1951] | 8.11 ± 0.092 |
| TATCTGTAAACATATTCACACACATAAATTCGCATA [CACACA_site8557] | 7.71 ± 0.57 |
| GTTATATATGATGGAAGCACTTGGAAGAGGGAAATA [CACACA_negctrl_site1831] | 8.19 ± 0.49 |
| GATAAATATTTAATATGTACATATATTATATATATA [XGTACX_site117] | 8.51 ± 0.32 |
| TATATACACACCGTGTGTACATATACATTAACTGAA [XGTACX_site7120] | 8 ± 0.25 |
| AAAAATAAAAAAATAAAAAATAAAAAAATAAAAAAT [CACACA_negctrl_site1425] | 7.46 ± 0.7 |

| Sequence | gcPBM binding intensity (ln) |
| --- | --- |
| ATATATTATATATGCGCACACACGAATTTTTTTTTT [CACACA_site2393] | 8.46 ± 0.53 |
| ATTAAAGTTATAAATTCACACATGTAAATGTATTTA [CACACA_site5279] | 7.47 ± 0.5 |
| ATATATATATGTATGTATATATATATATATATGTTT [CACACA_negctrl_site248] | 9.03 ± 0.64 |
| TTTCTTTTTTTTTGAAGTACATAAAAATATAAAAAA [XGTACX_site311] | 8.03 ± 0.085 |
| TAAATTTTTTCTTTTTGTACATATTTTAAAAATGTT [XGTACX_site7526] | 7.69 ± 0.64 |
| AATATTATAAAATATTGTACTTAAAAAATTATTAAA [XGTACX_site2469] | 7.44 ± 0.34 |
| AAAAAGAAAAAGAGCACACAAAAATATTTAACCTTT [CACACA_site2747] | 7.89 ± 0.6 |
| ATGGCATAAATATATGCACACACAAAAAAAAAAAAA [CACACA_site7902] | 8.98 ± 0.11 |
| AAAAATATAAATGACACACACTTAAAAACAAAGAAA [CACACA_site4540] | 7.71 ± 0.66 |
| ATTTAAAAAAAAAAAAATAAATAACTTGAAAAACAA [GTGCAC_negctrl_site318] | 7.35 ± 0.71 |
| CTTATATATACGTGCACACATATATATAAGATATAT [CACACA_site1752] | 11.03 ± 0.11 |
| AAGGATAATAGGTACACATGCAATATTCATATATAC [TGCATGCA_site523] | 8.09 ± 0.54 |
| TTTCACACTATTTCATGTACACATAAAATTATATAT [XGTACX_site8692] | 8.34 ± 0.42 |
| TAAATATAATAAAAGTGTACTTACACTTACATATAA [XGTACX_site1206] | 7.61 ± 0.38 |
| ATATAATAAGGTTAAGCACACATATTACATATATAA [CACACA_site9110] | 8.35 ± 0.23 |
| TTGTATATATTTCCTTGTACGTAATAATTCTTATTG [XGTACX_site3938] | 7.96 ± 0.73 |
| AACAGATAAAAGGGTACACACATATATACATGTACA [CACACA_site225] | 7.66 ± 0.4 |
| TTTTATTCCGTTTCAAAATAAGAAAAAAAAAAAAAT [CACACA_negctrl_site1199] | 7.73 ± 0.52 |
| TACTTCTCATTTGTTGTTGTATTTTAGGCATACCCT [XGTACX_negctrl_site385] | 7.78 ± 0.74 |

| Sequence | gcPBM binding intensity (ln) |
| --- | --- |
| TTTTATTTATCATACACACACAGAAAAAAAAAAAAA [CACACA_site158] | 8.14 ± 0.55 |
| CCTTTCCTTTTATAAGTGCATATAACAAATGTATAC [GTGCAC_site9872] | 10 ± 0.11 |
| GAATGTTTATTATATGCATGTTATATATATGAATAT [TGCATGCA_site4] | 7.7 ± 0.48 |
| AATAATGAAAAATCAAATAACCTAAATTACAACTGT [XGTACX_negctrl_site65] | 7.62 ± 0.54 |
| TCAAAAGAAATAAAAACATGCATAAAAGTAAAAATA [TGCATGCA_site832] | 8.03 ± 0.84 |
| TTATGATAATTTTGCACACACTTAGGAAAAATTATG [CACACA_site4949] | 9.4 ± 0.19 |
| AAATAATATATATACACACACACATATATATATACA [CACACA_site554] | 8.02 ± 0.39 |
| ACGTATATTTTTACATGTACATATGTAAAAAATTTT [XGTACX_site4587] | 7.92 ± 0.39 |
| TGTTTTTCATAGTGCACACATAACCAAAAATAGTAT [CACACA_site3150] | 11.5 ± 0.67 |
| TAAATATATAAATACACACACATACACAAAAAAAAA [CACACA_site5890] | 8.12 ± 0.57 |
| TATACACCCTAAAATACACACACACCCACCCATATA [CACACA_site9380] | 8.39 ± 0.79 |
| TATAAACCAATGAACACACAAACATATATATATATA [CACACA_site3168] | 9.44 ± 0.49 |
| TCTTTTTATATTTATTGTACATAAAAAATAAAACAT [XGTACX_site4073] | 8.03 ± 0.3 |
| TTTTTTTTTCTTTCTTTCTTTTGTAAAAACCTCAAA [CACACA_negctrl_site723] | 7.79 ± 0.7 |
| ATATGTATATATAAAAGTACGCGTAAAAAAAAAAAA [XGTACX_site5377] | 8.25 ± 0.71 |
| TAATATATATATTTATGTACATATAAATTTTCTCCT [XGTACX_site4496] | 7.71 ± 0.4 |
| TATTTTAAAACAAAAATATAATTTCATAAAAATATA [CACACA_negctrl_site394] | 7.2 ± 0.47 |
| ATAAAATAATCTTATGCACACCAAAAATTTATATAA [CACACA_site8332] | 9.21 ± 0.13 |
